Data: PubChem BioAssay AID1346428 (National Center for Advancing Translational Sciences (NCATS), 2018)
Out of some 48,000 compounds screened, about 1,200 (2.5%) were called active. Roughly 2% stayed inconclusive and do not appear here.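 The calls were made as follows: active = activation of at least 60% and not above a set upper limit (about 1 call in 100 departs from these limits); inconclusive = activation of 40% to 60%, or above that upper limit; inactive = activation under 40%.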 This is one part of the list.

target: Probable G-protein coupled receptor 32 (Homo sapiens) (UniProt O75388); experiment: qHTS for Agonists of Human Resolvin D1 Receptor DRV1; conditions: CHO-K1 GPR32 beta-arrestin PathHunter luminescence, 90 min; at 76.9 µM; stronger effect = higher value; zero percent set by DMSO-only wells
In short: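 Beta-arrestin recruitment read-out: luminescence from complemented beta-Gal in CHO-K1 GPR32 PathHunter cells, measured 1 h after detection reagent at ambient temperature following 90 min compound exposure at 37 °C; DMSO served as basal (EC0) control.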

UniProt O75388, sequence (O75388 whole entry, looked up): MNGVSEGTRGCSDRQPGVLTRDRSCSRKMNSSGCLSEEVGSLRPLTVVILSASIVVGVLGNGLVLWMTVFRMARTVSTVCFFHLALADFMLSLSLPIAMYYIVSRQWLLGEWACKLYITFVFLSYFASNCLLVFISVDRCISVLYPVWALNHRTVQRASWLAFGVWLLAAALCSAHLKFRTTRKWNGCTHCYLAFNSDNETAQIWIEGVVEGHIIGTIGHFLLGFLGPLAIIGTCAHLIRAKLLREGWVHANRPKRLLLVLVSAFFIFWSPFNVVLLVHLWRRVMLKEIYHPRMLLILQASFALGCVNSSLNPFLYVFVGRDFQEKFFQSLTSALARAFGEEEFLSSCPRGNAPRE

activation, inactive:
Cc1ccc(-n2ncc3c(NC4CCCCCC4)ncnc32)cc1Cl 36.7%
CC(=O)c1ccc(N2C(=O)N(CC(=O)c3ccc(F)cc3)c3ccccc3S2(=O)=O)cc1 -15.1%
Cc1ccc(-n2ncc(C(=O)NCc3ccco3)c2C2CCN(C(=O)OC(C)(C)C)CC2)c(C)c1 -48.7%
CCOC(=O)C1=C(C)N=C2SCCC(=O)N2C1c1ccc(OCc2ccccc2)cc1 (centres undefined) 18.4%
COc1ccc(S(=O)(=O)NCCc2csc(-c3ccc(F)cc3)n2)cc1F -15.5%
Cn1nc(C(=O)Nc2ccc(F)c(Cl)c2)c2c1-c1ccccc1S(=O)(=O)C2 -4.72%
CC(=O)CSc1nnc2[nH]c(=O)cc(N)n12 14.3%
CCOc1cc2[nH]c(=O)n(Cc3ccc(C(=O)N4CCN(c5cccc(Cl)c5)CC4)cc3)c(=O)c2cc1OCC 5.6%
COc1cc(C2NC(=O)c3c(sc4c3CCN(C)C4)N2)cc(OC)c1OC (centres undefined) -6.65%
Cc1cccc(-c2nnc(C3CCN(S(=O)(=O)c4cccc(Cl)c4)CC3)o2)c1 -22%
CCc1ccc(CNC(=O)C2CCN(c3nn4cc(-c5ccc(F)cc5)nc4s3)CC2)cc1 5.68%
COc1ccc(Br)cc1CN1C(=O)c2ccccc2C1C(=O)NC1CCCCCC1 (centres undefined) -19.9%
O=C(Cn1c(=O)nc(-c2ccccc2)c2cc(Cl)ccc21)N1CCN(c2ccc(F)cc2)CC1 -15.5%
CCOC(=O)c1c(C)c(-c2ccccc2)n(CC(=O)NC2CCCCC2)c1C -1.9%
COc1cc(NC(=O)Cn2cnc(S(=O)(=O)N3CCCC3)c2)cc(OC)c1OC 1.25%
Cc1cccc(CNC(=O)CS(=O)(=O)c2cccc3nsnc23)c1 -6.28%
CCOC(=O)c1c(C)[nH]c(C)c1S(=O)(=O)N1CCCC(C(=O)N2CCN(c3cccc(C)c3C)CC2)C1 (centres undefined) -5.8%
COc1ccc(Cl)cc1NC(=O)c1nn(-c2ccc(C)cc2)c(=O)n(C)c1=O -4.98%
CCN(C(=O)c1cnc2ccc(C)cn2c1=O)c1ccccc1 2.74%
CCOC(=O)C1CCN(C(c2cccc(F)c2)c2c(O)cc(C)n(CCOC)c2=O)CC1 (centres undefined) -11.8%
COCCNC(=O)c1cnc2sc(N3CCC(C)CC3)nn2c1=O 6.35%
COC(=O)C1=C(C)NC(C)=C(C(=O)OC(C)C)C1c1cccc2nonc12 (centres undefined) -31.9%
CCc1ccc(NC(=O)C2CCN(c3nn4c(=O)cc(C)nc4s3)CC2)cc1 -15.9%
O=C1OC(OC(=O)c2cccnc2Nc2cccc(C(F)(F)F)c2)c2ccccc21 (centres undefined) 21.8%
Clc1ccc(-c2noc3ncnc(NCCc4ccccc4)c23)cc1 23.5%
N#C[C@H]1C[C@H]2C[C@@H]2N1C(=O)[C@@H](N)C12CC3CC(CC(O)(C3)C1)C2 -2.72%
O=C(Nc1ccc2c(c1)CCCN2C(=O)c1cccs1)c1ccccc1Cl 3.66%
CC1=C(c2ccc(C)cc2)S(=O)(=O)NC1=NCCCN1CCN(c2ccc(F)cc2)CC1 22.5%
Cc1ccc(C)c(OC(=O)CSc2nnc(CNC(=O)c3ccccc3)o2)c1 -7.87%
Cc1ccc(NC(=O)CN2C(=O)CCSc3ccc(S(=O)(=O)N4CCCC4)cc32)cc1C -12.9%
Cc1ccc(NC(=O)CSc2nc(-c3ccco3)cc(C(F)(F)F)n2)cc1 25.8%
CCN(CC)c1ccc(NC(=O)CSc2nc(-c3cccs3)cc(C(F)(F)F)n2)cc1 8.06%
Cc1ccc(NC(=O)Nc2nnc(N(C)Cc3ccccc3)s2)c(C)c1 -16%
CC(C)c1ccc(OC(=O)c2cc(-c3ccccc3)on2)cc1 0.349%
CCOc1ccc(-n2nc3ccc(NC(=O)COc4ccc(OC)cc4)cc3n2)cc1 12.6%
CCN(CC)c1ccc(NS(=O)(=O)c2cc3[nH]c(=O)c(=O)[nH]c3cc2C)c(C)c1 -22.6%
Cc1cc2oc(C(=O)Nc3ccc(S(=O)(=O)N4CCCCCC4)cc3)cc(=O)c2cc1C 2.77%
COc1cc(C)cc2oc(=O)c(CC(=O)NCc3cccc(Cl)c3)c(C)c12 5.78%
CCc1nc(Oc2cccc(F)c2)c2oc3ccccc3c2n1 -6.47%
COC(=O)c1ccc(C2C(C(=O)Nc3ccccc3)=C(C)Nc3nc4ccccc4n32)cc1 (centres undefined) 3.05%
CC(=O)N1CCc2c(sc3nc(SCC(C)C)n(-c4ccc(F)c(Cl)c4)c(=O)c23)C1 -21.5%
CCCSc1ncc(Cl)c(C(=O)Nc2c(C(=O)Nc3ccc(C)cc3)oc3ccccc23)n1 -6.75%
CC1=C(C(=O)Nc2ccccc2)C(c2cccn2C)n2ncnc2N1 (centres undefined) -3.79%
Cc1ccc(Nc2nc(C)nc(N)c2S(=O)(=O)c2ccccc2)cc1 5.67%
CCN(CC)c1ccc(-c2nc(-c3ccccc3C)no2)cc1[N+](=O)[O-] -5.19%
O=C(NCCc1ccccc1Cl)c1ccc2c(c1)nc1n2CCCCC1 -17.1%
COc1ccc(Cn2c(=O)c3oc4ccccc4c3n(CC(=O)Nc3ccc(F)cc3F)c2=O)cc1 -14.4%
Cc1ccc(Cl)cc1N1CCN(Cc2nnc(-c3ccc4c(c3)OCO4)o2)CC1 -12.4%
O=S(=O)(c1ccc2nc(N3CCN(c4cccc(Cl)c4)CC3)ccc2c1)N1CCCCC1 -20.8%
Cc1ccc(CNC(=O)CSc2n[nH]c(-c3ccc(F)cc3)n2)cc1 -19.5%
O=C(Nc1cccc(Cl)c1)c1cc2c(=O)[nH]c3ccccc3c2s1 -8.27%
Cc1cccc(N2CCN(C(=O)CCn3c(=O)c4cccn4c4cccnc43)CC2C)c1 (centres undefined) -1.62%
COc1cccc(C(=O)Nc2cccc(-c3cn4c(C)csc4n3)c2)c1OC -3.75%
CC1(C)CCC2=C(O1)c1ccccc1C(=O)C2=O 34%
Cc1cccc(-c2nc3c4ccccc4nc(N4CCN(c5cc(C)ccc5C)CC4)n3n2)c1 -3.35%
CCOc1ccc(-c2nn(CC(=O)NC3CCCC3)c3c2cnc2ccc(F)cc23)cc1 0.222%
CCc1ccccc1NC(=O)c1cnc2sc(N3CCCC3)nn2c1=O 0.8%
Cc1nnc(N2CCCC(C(=O)NCCc3ccc(Cl)cc3)C2)c2nn(-c3ccccc3)c(C)c12 (centres undefined) -6.22%
COc1cccc(N2CCN(C(=O)Cn3c(-c4cccs4)cc4ccccc43)CC2)c1 -13.7%
CC(=O)OCC[N+](C)(C)C -1.75%
CC1=C(C(=O)Nc2ccc(C)cc2C)C(c2cccs2)n2nc(SCc3ccccc3Cl)nc2N1 (centres undefined) 18.6%
CC(C)CCNC(=O)CN1N=C(c2ccc(Cl)cc2)CCC1=O -19.4%
COc1ccc(CN2C(=O)c3ccccc3C2C(=O)NCCc2ccccc2)c(OC)c1 (centres undefined) -3.88%
O=c1oc2ccccc2cc1-c1cn2cc(Cc3ccc(Cl)cc3)sc2n1 -6.72%
CCN(Cc1ccccc1)C(=O)Cn1c(=O)n(-c2ccc(C)c(C)c2)c(=O)c2c(C)c(C)sc21 -0.373%
Cc1cn2c(=O)cc(COC(=O)COc3ccccc3C)nc2s1 11.6%
CCOC(=O)c1c(C)[nH]c(CCC(=O)NCc2ccc(N(C)C)cc2)c1C -14.2%
O=c1cc(-c2ccccc2)n2c(SCc3ccc(F)cc3)nnc2[nH]1 -7.51%
CCn1cc(C(=O)N2CCN(c3ccccc3F)CC2)c(=O)c2cc(S(=O)(=O)N(C)C)ccc21 -0.0706%
COc1ccc(CNc2oc(-c3ccc(COc4ccccc4C)o3)nc2C#N)cc1 -28.4%
O=C(Nc1cccc(C(F)(F)F)c1)c1cc2ccc3cccnc3c2[nH]1 1.91%
O=C(NCCCN1CCN(c2ccc(F)cc2)CC1)c1ccc2nc(Cc3ccccc3)oc2c1 19.7%
CCOc1ccc(CN2CCc3nc(Nc4ccc(OC)cc4OC)ncc3C2)cc1 -2.3%
CCN(CC)c1nc2ccccc2nc1C(=O)Nc1cccc(C(C)=O)c1 -17.5%
COc1ccc(NC(=O)c2c(-c3ccc(C)cc3)nnc3ccccc23)c(OC)c1 -25.9%
Cc1ccc2sc(NC(=O)c3ccc4c(c3)OCCO4)nc2c1C -16.2%
COc1ccc2c(c1)c1c(c(=O)n(-c3ccc(F)c(Cl)c3)c(=O)n1Cc1ccccc1C)n2C 23.6%
CCN(CC)CCCNC(=O)c1nn(C)c2c1CS(=O)(=O)c1ccccc1-2 1.39%
Cc1ccccc1Cn1c(CN2CCC(C(=O)NCCc3ccccc3)CC2)cc2ccccc21 -48.3%
CCC(=O)Nc1cccc(C(=O)OCc2cc(=O)n3nc(CC)sc3n2)c1 -2.08%
COc1ccc2c(c1)c1c(c(=O)n(CCc3ccccc3)c(=O)n1Cc1ccc(F)cc1)n2C -11.9%
CCSC1=NC2(CCN(C(=O)NC3CCCCC3)CC2)N=C1c1ccc(Cl)cc1 8.72%

activation, active:
Cc1cc(NC(=O)C2CCN(S(=O)(=O)c3ccc(Br)s3)CC2)ccc1Br 76.4%
Cc1ccc(-c2nc(C)c(CCNS(=O)(=O)c3ccc(F)c(C(F)(F)F)c3)s2)cc1 63.3%
